{"source": "paper PMC4336329", "about": "(PLoS ONE, 2015)", "note": "Screen size: about 310,000 compounds; about 2,200 (0.71%) showed an effect of 50% or more. Effects have a minus sign here. Some of the results follow. Where a SMILES comes first, the peptide text is derived from it. The star is where a group is joined. Boc = CC(C)(C)OC(=O)*", "data": [{"target": "human ether-à-go-go-related gene (hERG) potassium channel (human, UniProt Q12809)", "sequence (Q12809 whole entry, looked up)": "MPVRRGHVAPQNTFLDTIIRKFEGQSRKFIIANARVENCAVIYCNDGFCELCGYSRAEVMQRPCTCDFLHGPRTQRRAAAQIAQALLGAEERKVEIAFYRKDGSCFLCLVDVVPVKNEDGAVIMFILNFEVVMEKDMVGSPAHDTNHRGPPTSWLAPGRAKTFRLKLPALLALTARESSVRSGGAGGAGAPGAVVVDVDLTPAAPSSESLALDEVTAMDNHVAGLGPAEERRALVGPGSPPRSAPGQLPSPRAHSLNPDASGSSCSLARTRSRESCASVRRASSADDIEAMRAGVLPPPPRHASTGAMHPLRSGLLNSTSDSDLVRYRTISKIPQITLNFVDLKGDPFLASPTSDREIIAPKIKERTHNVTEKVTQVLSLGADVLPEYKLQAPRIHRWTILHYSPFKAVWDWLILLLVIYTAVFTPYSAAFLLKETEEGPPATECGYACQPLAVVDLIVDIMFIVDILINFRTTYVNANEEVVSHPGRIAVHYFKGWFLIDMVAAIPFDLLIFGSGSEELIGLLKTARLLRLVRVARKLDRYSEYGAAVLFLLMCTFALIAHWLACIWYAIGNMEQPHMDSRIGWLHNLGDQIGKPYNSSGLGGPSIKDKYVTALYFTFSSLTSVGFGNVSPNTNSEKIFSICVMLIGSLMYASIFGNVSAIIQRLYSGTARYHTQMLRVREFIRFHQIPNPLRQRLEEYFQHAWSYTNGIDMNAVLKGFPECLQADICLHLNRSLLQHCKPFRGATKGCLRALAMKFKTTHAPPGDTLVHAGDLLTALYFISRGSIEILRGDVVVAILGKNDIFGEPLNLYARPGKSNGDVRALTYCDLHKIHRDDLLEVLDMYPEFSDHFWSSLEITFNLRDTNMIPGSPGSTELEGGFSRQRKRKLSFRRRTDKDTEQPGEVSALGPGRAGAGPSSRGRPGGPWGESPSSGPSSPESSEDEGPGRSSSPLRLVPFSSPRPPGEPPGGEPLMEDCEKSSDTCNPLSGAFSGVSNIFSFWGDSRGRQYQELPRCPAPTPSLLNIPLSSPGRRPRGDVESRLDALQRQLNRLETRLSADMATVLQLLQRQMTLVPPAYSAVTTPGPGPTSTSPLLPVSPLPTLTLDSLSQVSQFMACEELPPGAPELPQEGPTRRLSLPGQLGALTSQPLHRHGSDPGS", "test": "primary screen, population patch clamp on CHO cells stably expressing hERG", "units": {"hERG current change (%, negative = inhibition) at 1uM": "%"}, "values": [{"smiles": "CCOc1ccc(C(=O)NN2CCOCC2)cc1", "hERG current change (%, negative = inhibition) at 1uM": 7.67}, {"smiles": "CCc1ccc(NC(=O)C(=O)N/N=C(\\C)CC(=O)Nc2ccccn2)cc1", "hERG current change (%, negative = inhibition) at 1uM": -5.13}, {"smiles": "CC1=C(C(=O)NC(C)C)C2(CCC(C)CC2)OC1=O", "note": "(centres unmarked)", "hERG current change (%, negative = inhibition) at 1uM": 11.5}, {"smiles": "COc1ccc(/C=N/NC(=O)c2cccc([N+](=O)[O-])c2)cc1OC", "hERG current change (%, negative = inhibition) at 1uM": 7.94}, {"smiles": "COc1ccc(OCC(=O)Nc2nonc2NC(=O)COc2ccc(OC)cc2)cc1", "hERG current change (%, negative = inhibition) at 1uM": 18.7}, {"smiles": "CC(C)NC(=O)C1CCN(Cc2cnn(-c3ccccc3)c2-n2cccc2)CC1", "hERG current change (%, negative = inhibition) at 1uM": 6.5}, {"smiles": "O=C(Nc1ncc(Cc2cccc(Cl)c2)s1)c1cccs1", "hERG current change (%, negative = inhibition) at 1uM": 10.7}, {"smiles": "Fc1ccccc1-c1nc(-c2ccncc2)no1", "hERG current change (%, negative = inhibition) at 1uM": 7.25}, {"smiles": "Cc1nnc(NC(=O)c2cccc(S(=O)(=O)N3CCc4ccccc43)c2)s1", "hERG current change (%, negative = inhibition) at 1uM": -1.57}, {"smiles": "Cc1ccc(C(=O)OCC(=O)Nc2ccc(N(C)C)cc2)cc1NC(=O)c1ccco1", "hERG current change (%, negative = inhibition) at 1uM": 8.17}, {"smiles": "COc1ccccc1NC(=O)c1cc(C(=O)Nc2ccccc2OC)cc(N2C(=O)CCC2=O)c1", "hERG current change (%, negative = inhibition) at 1uM": 16.7}, {"smiles": "CC(NC(=O)COc1ccc(N(C)S(=O)(=O)c2ccccc2)cc1)c1ccccc1", "note": "(centres unmarked)", "hERG current change (%, negative = inhibition) at 1uM": 8.78}, {"smiles": "Cc1ccc(C(C)NC(=O)/C(C#N)=C\\c2c(C)[nH]c3ccccc23)cc1", "note": "(centres unmarked)", "hERG current change (%, negative = inhibition) at 1uM": 5.31}, {"smiles": "CCN(CC)Cc1cc(C(=O)O)c(-c2ccccc2)o1.Cl", "hERG current change (%, negative = inhibition) at 1uM": 8.31}, {"smiles": "O=C(O)c1ccc(NS(=O)(=O)c2ccc(C(=O)Nc3ccccc3)cc2)cc1", "hERG current change (%, negative = inhibition) at 1uM": 6.86}, {"smiles": "Cc1cc(C)cc(N2CC(C(=O)NC3CCCCC3)CC2=O)c1", "note": "(centres unmarked)", "hERG current change (%, negative = inhibition) at 1uM": 13.2}, {"smiles": "COC(=O)c1cc(OC)c(OC)cc1NC(=S)N1CCN(C)CC1", "hERG current change (%, negative = inhibition) at 1uM": 11.4}, {"smiles": "COc1ccc(/C=N/NC(=O)c2cccnc2)c(C(=O)O)c1OC", "hERG current change (%, negative = inhibition) at 1uM": 15.1}, {"smiles": "O=c1ncn(-c2cccc(F)c2)c2ncccc12", "hERG current change (%, negative = inhibition) at 1uM": 16.9}, {"smiles": "Cn1nc([N+](=O)[O-])nc1Sc1ccc(C(C)(C)C)cc1", "hERG current change (%, negative = inhibition) at 1uM": 7.21}, {"smiles": "CC(C)(C)c1ccc(C(=O)Nc2ccc(F)cc2)s1", "hERG current change (%, negative = inhibition) at 1uM": 10.4}, {"smiles": "COc1cc2c(cc1OC)CN(c1nc(-c3cccnc3)nc3ccccc13)CC2", "hERG current change (%, negative = inhibition) at 1uM": 9.34}, {"smiles": "CN(CC(=O)NCC(c1ccccc1)N1CCCC1)S(=O)(=O)c1ccc(Cl)cc1", "note": "(centres unmarked)", "hERG current change (%, negative = inhibition) at 1uM": -8.89}, {"smiles": "O=[N+]([O-])c1ccccc1-c1ccc(/C=N/n2cnnc2)o1", "hERG current change (%, negative = inhibition) at 1uM": -10}, {"smiles": "O=C(Nc1c(F)cc(F)cc1Br)c1cccnc1", "hERG current change (%, negative = inhibition) at 1uM": 10.6}, {"smiles": "COc1ccc(OCCCC(=O)OC(C)C(=O)Nc2ccc(NC(C)=O)cc2)cc1", "note": "(centres unmarked)", "hERG current change (%, negative = inhibition) at 1uM": 11.8}, {"smiles": "O=S(=O)(Nc1ncccn1)c1ccc(NC(=S)NCCc2ccc(Cl)cc2)cc1", "hERG current change (%, negative = inhibition) at 1uM": 19.3}, {"smiles": "COCC(C)NC(=O)CSc1nnc(-c2cccc(S(=O)(=O)N3CCCCC3)c2)o1", "note": "(centres unmarked)", "hERG current change (%, negative = inhibition) at 1uM": 19.4}, {"smiles": "C=CCNc1nc(C(F)(F)F)nc2c1nnn2Cc1ccccc1Cl", "hERG current change (%, negative = inhibition) at 1uM": 1}, {"smiles": "CCc1ccc(-c2csc3ncn(Cc4ccc(C(=O)O)cc4)c(=O)c23)cc1", "hERG current change (%, negative = inhibition) at 1uM": -0.199}, {"smiles": "O=C(NC1CCCCC1)N1CCc2ccccc2C1", "hERG current change (%, negative = inhibition) at 1uM": 13.4}, {"smiles": "CCOC(=O)C1CCCN(C(=O)c2ccc(CNS(=O)(=O)c3ccc(C)cc3)cc2)C1", "note": "(centres unmarked)", "hERG current change (%, negative = inhibition) at 1uM": 7.51}, {"smiles": "O=C(CCNC(=O)N1CCn2c1nc1ccccc12)NCc1ccc(F)cc1", "hERG current change (%, negative = inhibition) at 1uM": 5.38}, {"smiles": "CN1C(=O)CC(c2ccccc2)Nc2ccccc21.Cl", "note": "(centres unmarked)", "hERG current change (%, negative = inhibition) at 1uM": 9.48}, {"smiles": "CCOC(=O)C1C(=O)OC2(CCCCC2)C1C(=O)OCC", "note": "(centres unmarked)", "hERG current change (%, negative = inhibition) at 1uM": 7.82}, {"smiles": "CCc1nc(-c2cc3ccc(C)cc3[nH]c2=O)no1", "hERG current change (%, negative = inhibition) at 1uM": -12.5}, {"smiles": "CCOc1ccccc1N1C(=O)c2cccnc2C1=O", "hERG current change (%, negative = inhibition) at 1uM": 16.4}, {"smiles": "NS(=O)(=O)c1ccc(CNc2nc(-c3cccnc3)nc3ccccc23)cc1", "hERG current change (%, negative = inhibition) at 1uM": 15.8}, {"smiles": "COc1ccc(/C=C/C(=O)Nc2cccc(C(C)=O)c2)cc1", "hERG current change (%, negative = inhibition) at 1uM": -2.4}, {"smiles": "COc1cccc2cc(C(=O)C3=C(O)C(=O)N(CCN4CCOCC4)C3c3cccs3)oc12", "note": "(centres unmarked)", "hERG current change (%, negative = inhibition) at 1uM": 12.9}, {"smiles": "CCCCOc1nc2ccccc2nc1NS(=O)(=O)c1ccc(F)cc1", "hERG current change (%, negative = inhibition) at 1uM": -3.17}, {"smiles": "CC(C)OC(=O)CSc1nc2cccnc2n1C1CCCCC1", "hERG current change (%, negative = inhibition) at 1uM": 8.26}, {"smiles": "COc1cc(/C=N/NC(=O)Nc2ccccc2)ccc1OCCOc1ccccc1C", "hERG current change (%, negative = inhibition) at 1uM": 8.66}, {"smiles": "COc1ccc(-n2cnc3ccccc3c2=O)c([N+](=O)[O-])c1", "hERG current change (%, negative = inhibition) at 1uM": 14.6}, {"smiles": "O=C(COC(=O)/C=C/c1cccc(F)c1)Nc1ccccc1-c1ccccc1", "hERG current change (%, negative = inhibition) at 1uM": 12.2}, {"smiles": "COc1ccc(CN2C(=O)c3cccnc3C2=O)cc1S(=O)(=O)NC1CCCCC1C", "note": "(centres unmarked)", "hERG current change (%, negative = inhibition) at 1uM": 6.2}, {"smiles": "Cn1c(=O)[nH]c(=O)c2c1nc(N1CCCCCC1)n2CC(N)=O", "hERG current change (%, negative = inhibition) at 1uM": 14.9}, {"smiles": "O=C(COC(=O)Cc1ccccc1)NNC(=O)c1ccc([N+](=O)[O-])cc1", "hERG current change (%, negative = inhibition) at 1uM": 7.76}, {"smiles": "Cc1cccc(C)c1N(CC(=O)N(C)Cc1ccccc1)S(C)(=O)=O", "hERG current change (%, negative = inhibition) at 1uM": 5.81}, {"smiles": "O=C1CC(N(C(=O)c2ccco2)c2ccc(F)cc2)C(=O)N1c1ccc(F)cc1", "note": "(centres unmarked)", "hERG current change (%, negative = inhibition) at 1uM": 4.37}, {"smiles": "Cc1ccc(C(=O)N2NC(c3ccccc3F)C3C(=O)N(c4cccc(C)c4)C(=O)C32)cc1", "note": "(centres unmarked)", "hERG current change (%, negative = inhibition) at 1uM": 8.55}, {"smiles": "CCC(C)C(NC(=O)OC(C)(C)C)C(=O)NC(Cc1ccccc1)C(=O)OC", "note": "(stereo not drawn) (Boc-Ile-Phe-OMe; configuration not given here)", "hERG current change (%, negative = inhibition) at 1uM": 3.37}, {"smiles": "CCCCNC(=O)C1COc2ccccc2O1", "note": "(centres unmarked)", "hERG current change (%, negative = inhibition) at 1uM": 14.8}, {"smiles": "CCOC(=O)C1CCN(Cc2cnc(Oc3ccc(OC)cc3)s2)CC1", "hERG current change (%, negative = inhibition) at 1uM": -5.56}, {"smiles": "CCOC(=O)CC1C(=O)NCCN1C1CCCC1", "note": "(centres unmarked)", "hERG current change (%, negative = inhibition) at 1uM": 12.1}, {"smiles": "NC(=O)C1(N2CCCCC2)CCN(C(=S)Nc2ccccc2)CC1", "hERG current change (%, negative = inhibition) at 1uM": 9.1}]}]}
